The list shows a part of the results.

Drawing on paper PMC7819943, “Rice protein-binding microarrays: a tool to detect cis-acting elements near promoter regions in rice”, this text covers binding signal for 42 sequences.

The target of this assay is T1, OsWOX13 (Oryza sativa, UniProt Q5QMM3 1-267).
T1 sequence: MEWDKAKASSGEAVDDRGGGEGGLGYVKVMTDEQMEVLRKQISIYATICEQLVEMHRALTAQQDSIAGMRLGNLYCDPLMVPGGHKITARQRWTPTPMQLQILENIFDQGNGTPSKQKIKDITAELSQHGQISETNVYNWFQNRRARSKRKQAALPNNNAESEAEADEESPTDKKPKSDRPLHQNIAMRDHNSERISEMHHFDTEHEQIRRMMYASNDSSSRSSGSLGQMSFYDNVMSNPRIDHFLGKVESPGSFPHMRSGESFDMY
The experiment in a line: protein-binding microarray (RPBM); PBS, 2% BSA, 51.3 ng/ul salmon testes DNA, 50 uM zinc acetate, 200 nM TF, 25 C, 1 h; high values mean tight binding. The settings on record: protein: recombinant; tags: N-terminal polyhistidine and DsRed monomer fusion (pET32a); label: CyDye5-dUTP incorporated in the synthesized complementary strand; 3' TTTTT single-stranded linker to array surface; dsDNA, one strand shown. The method in brief:
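A custom Agilent array was converted to double-stranded form by primer extension with Cy5-dUTP and blocked with 2% BSA. Protein at 200 nM in PBS with 2% BSA, salmon testes DNA and 50 µM zinc acetate was applied for 1 h at 25 °C, followed by washing. The proteins were polyhistidine–DsRed N-terminal fusions of transcription factors, expressed in E. coli BL21-CodonPlus and Ni–NTA-purified. The binding signal is per-feature fluorescence intensity (arbitrary units) from an Axon 4000B scanner.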
On to “TATGGCTAATTATGGACTAATTAGGCTCAAAAGATTCGTCCGGAGTCACCTAGTGCAG”, for which the binding signal is 38000 fluorescence intensity (a.u.).
For the sequence “AAAATCATGATAGAAATTATATATTTTCAAGTTGTTTTGCCGGAGTCACCTAGTGCAG”, the binding signal is 18200 fluorescence intensity (a.u.).
Then “TTGTTATCTGATTTAGACGTACATACTCACGTTTAGGCATCGGAGTCACCTAGTGCAG”, with 3240 fluorescence intensity (a.u.); and “TAAAATAAATCAAATTAATACAAGTGAGATATCTTAGTAACGGAGTCACCTAGTGCAG”, with 6480 fluorescence intensity (a.u.).
For “ACAAAATTAAGTAACATATGTAAATTTTGCATTGAATAATCGGAGTCACCTAGTGCAG” the value was 3330 fluorescence intensity (a.u.); for “TTGTTAATCATATAGTAATAACCTATATGCTACGATTCTGCGGAGTCACCTAGTGCAG”, 5660 fluorescence intensity (a.u.).
For “TTCTCTAATTAAATTAAACTATGAGTACTTAAAAGCCCTGCGGAGTCACCTAGTGCAG” the value was 24700 fluorescence intensity (a.u.); for “CTGAACTGGTTCGTTTCTAATTGACTGTGTTTGTTTGTTTCGGAGTCACCTAGTGCAG”, 4720 fluorescence intensity (a.u.); for “TCATTGAAATAATTTGAGGATGGAAATGAAACAGCAGCATCGGAGTCACCTAGTGCAG”, 3260 fluorescence intensity (a.u.).
For “GAACAATCAGACAATTTTATCTGGCTCAAGCACCATCTCTCGGAGTCACCTAGTGCAG”, the binding signal is 3260 fluorescence intensity (a.u.).
For “AGATTAGATTGGTTTAGCGCCAATAATTTAACCTAGTTAGCGGAGTCACCTAGTGCAG” the value was 27700 fluorescence intensity (a.u.); for “CTGGATGATTGGATCAGACGCTCACAATTAAGTTAACCCACGGAGTCACCTAGTGCAG”, 41900 fluorescence intensity (a.u.).
Then “GAGATTGGAAGCACCATTTGACATTACGCGCCTGATTCATCGGAGTCACCTAGTGCAG”, with 5800 fluorescence intensity (a.u.); and “TAGACTTATAACTAATTTAATTTCTATAGTTACGTTATCCCGGAGTCACCTAGTGCAG”, with 9980 fluorescence intensity (a.u.); and “ACATCAGTTCAGCTTAATTGACTTGTTCTCCATCACAAGTCGGAGTCACCTAGTGCAG”, with 11700 fluorescence intensity (a.u.).
For “TTTCCGTCACATCGTTTAAATTTTAACCAAACTTTTAATTCGGAGTCACCTAGTGCAG”, the binding signal is 3420 fluorescence intensity (a.u.).
Then “TTAGACCATCCTTAATTTTAATTATCTACATCTAACTTGTCGGAGTCACCTAGTGCAG”, with 3280 fluorescence intensity (a.u.); and “TCCTTGGAATGATTGCAAAGATAATTACGTGAGCAGGACCCGGAGTCACCTAGTGCAG”, with 25200 fluorescence intensity (a.u.); and “TAAATTGTTTTAGTCTGAGTGACGACTGCACCGTTACCAGCGGAGTCACCTAGTGCAG”, with 3480 fluorescence intensity (a.u.).
For “ATAGACACACATATATAATTAGTAATATATATTGGTTCCTCGGAGTCACCTAGTGCAG” the value was 12600 fluorescence intensity (a.u.); for “GTAATGTTAAAATTTTGACAATTTAACAATATTGCTAAGTCGGAGTCACCTAGTGCAG”, 7130 fluorescence intensity (a.u.).
Then “TTGGGTAATTAACTCTCCCTCATTGATGCCTATTTAACACCGGAGTCACCTAGTGCAG”, with 19200 fluorescence intensity (a.u.); and “AACAGTGTAACAATGATTGATGCAATAATATATCATCTGACGGAGTCACCTAGTGCAG”, with 25600 fluorescence intensity (a.u.); and “CTCCTGCAAATGGGTTGATTTGTTTGTCTTCATACTGAATCGGAGTCACCTAGTGCAG”, with 5210 fluorescence intensity (a.u.).
Take “TTTCCGTCACATCATTCTAATTTTAACCAAACTTCCAATTCGGAGTCACCTAGTGCAG”: the binding signal was 4920 fluorescence intensity (a.u.).
For “TGTTGATGGACAGATGCATGCACCTCCCAAAATACCATCCCGGAGTCACCTAGTGCAG” the value was 22200 fluorescence intensity (a.u.); for “ATAACCCGACATAATTTGAACCGGGCCAGTAAGGCTGTGGCGGAGTCACCTAGTGCAG”, 4110 fluorescence intensity (a.u.).
For “TTGAAATTAAATTTAATCAGCATAAATTACATCATTGACTCGGAGTCACCTAGTGCAG” the value was 32100 fluorescence intensity (a.u.); for “GAGGTAATTTGGATAGTTATAATCAGGTCTTGAGATCTTCCGGAGTCACCTAGTGCAG”, 22700 fluorescence intensity (a.u.); for “CCACGTCATTTGACTGGTCGAAGTTAACAGAGATGGGGTACGGAGTCACCTAGTGCAG”, 4540 fluorescence intensity (a.u.).
For “TGCTAAATTTGAAGATCTGGTCTTAATAAATACTAGTATACGGAGTCACCTAGTGCAG” the value was 3380 fluorescence intensity (a.u.); for “AAATTTTAAATTTTATAACTTAATTTTGAATTCGAATTTTCGGAGTCACCTAGTGCAG”, 5770 fluorescence intensity (a.u.).
Turning to “TTCGTCATATACGGTGGCTGATTGTTTTGACATTCGGCAACGGAGTCACCTAGTGCAG”, the binding signal is 4040 fluorescence intensity (a.u.).
As to “TGTGATAGAAAATGCAGTTTTACTCAGTACTTTACCAACTCGGAGTCACCTAGTGCAG”, the binding signal was 6890 fluorescence intensity (a.u.).
Then “AGGGAACATTCCAATCAATTATTCGGCTGCGAAAAGGCAACGGAGTCACCTAGTGCAG”, with 14000 fluorescence intensity (a.u.).
Then “AAGTCTAGAACAATTAATCAAATAAATTGTGTAGTGCTGACGGAGTCACCTAGTGCAG”, with 11700 fluorescence intensity (a.u.); and “GAGTGAATGGATGCAAATTAACAGACAAATTAACAGAGAGCGGAGTCACCTAGTGCAG”, with 18000 fluorescence intensity (a.u.); and “CCAAACAAACAAACAAACAATAATGCCAATCAAACCTCACCGGAGTCACCTAGTGCAG”, with 5050 fluorescence intensity (a.u.).
For “TTAAGATAGAGGAAACATTGATTGTATGCATGCTATATATCGGAGTCACCTAGTGCAG” the value was 3750 fluorescence intensity (a.u.).
As for “GGGTTTAGGTTGATTGCCCTTCCCTTGCACGCAAAGATGCCGGAGTCACCTAGTGCAG”, the binding signal was 10200 fluorescence intensity (a.u.).
Turning to “AGTATTAATTATGATTGTTGATCGAATTCGTCAATGGCAACGGAGTCACCTAGTGCAG”, the binding signal was 39800 fluorescence intensity (a.u.).
“TAGTGATTAGCCGAGTCTTGCACAAGATTAGGAGTAGGAACGGAGTCACCTAGTGCAG”: the binding signal was 17200 fluorescence intensity (a.u.).
